The supplement of paper PMC6206098
± gives the uncertainty stated by the source. The sequences are guide strands of siRNAs; only the seed at positions 2 to 7 varies.

How the values were obtained:
3LL = assay: cell viability relative to siNT1 control; higher = less toxic; conditions: concentration: 10 nM; 96 h; Mus musculus;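 note: Luminescence-based viability of cells reverse transfected in 384-well plates with lipid-complexed siRNAs built on a non-toxic 19mer backbone whose passenger strand carries 2′-O-methyl groups at positions 1 and 2, triplicates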
M565 = assay: cell viability relative to lipid-only control; HeyA8 human ovarian and H460 human lung cancer; M565 mouse liver and 3LL mouse lung cancer; siNT1 is a non-toxic control siRNA; higher = less toxic; conditions: concentration: 10 nM; 96 h; Mus musculus
Description: (§1)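 Arrayed screen of 4096 siRNA duplexes, each carrying one of all possible 6mer seeds at guide-strand positions 2-7 in a fixed neutral 19mer scaffold (constant flanks: U at position 1, then ACAUGUAAACCA, plus a 3' AA overhang). The passenger strand is 2'-O-methylated at positions 1-2 so only the guide strand loads into RISC. Duplexes were reverse-transfected at 10 nM with RNAiMAX in triplicate in 384-well plates; viability was read by CellTiter-Glo ATP content 96 h after transfection. Values are % viability normalised to lipid-only wells (HeyA8, H460, M565) or to siNT1 (3LL).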

HeyA8 = assay: as above; conditions: concentration: 10 nM; 96 h; Homo sapiens
Description: as §1

H460 = assay: as above; conditions: concentration: 10 nM; 96 h; Homo sapiens
Description: as §1
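Throughout, for cell viability relative to lipid-only control: reverse lipid transfection in 384-well plates, in triplicate, of duplexes on a non-toxic 19mer backbone with passenger strand 2′-O-methylated at positions 1 and 2, luminescence viability read-out.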

Sequence | cell viability (3LL) | cell viability (M565) | cell viability (HeyA8) | cell viability (H460)
UCUUAGAACAUGUAAACCAAA | 93.6 ± 15% | 65.5 ± 9.8% | 89.1 ± 12% | 46.6 ± 0.54%
UGAACAAACAUGUAAACCAAA | 97.1 ± 20% | 71.6 ± 20% | 89 ± 9.4% | 102 ± 12%
UAUAACAACAUGUAAACCAAA | 99 ± 19% | 93.7 ± 20% | 98.5 ± 12% | 110 ± 12%
UGCGGUGACAUGUAAACCAAA | 73.8 ± 13% | 33.8 ± 7.8% | 15.9 ± 1.8% | 23.9 ± 1.1%
UCGCAACACAUGUAAACCAAA | 94.9 ± 14% | 69 ± 5.6% | 82.7 ± 5.7% | 83.5 ± 8.5%
UCGCGAUACAUGUAAACCAAA | 88.6 ± 15% | 83.2 ± 3.2% | 76.3 ± 4.5% | 85.2 ± 14%
UGGCUUUACAUGUAAACCAAA | 79.8 ± 8.1% | 24.2 ± 4.1% | 38.4 ± 0.68% | 63.8 ± 10%
UCUGGUGACAUGUAAACCAAA | 98 ± 20% | 60.3 ± 9.5% | 84.7 ± 4% | 79 ± 2.5%
UGCGACUACAUGUAAACCAAA | 15 ± 6.5% | 44.3 ± 2.5% | 33.3 ± 2.6% | 63.4 ± 4.8%
UCUUAAAACAUGUAAACCAAA | 101 ± 12% | 87.1 ± 17% | 87.4 ± 8.7% | 76.1 ± 13%
UCUAUGAACAUGUAAACCAAA | 100 ± 19% | 73 ± 5.2% | 83 ± 5.6% | 47.8 ± 9.7%
UAGCCGAACAUGUAAACCAAA | 81 ± 7.9% | 35.7 ± 15% | 77.8 ± 5.2% | 71.5 ± 18%
UGGGUUCACAUGUAAACCAAA | 91.1 ± 9.3% | 38.2 ± 10% | 31.3 ± 2.5% | 35.4 ± 3.5%
UGUAACGACAUGUAAACCAAA | 93.6 ± 8.2% | 69.9 ± 6% | 83.5 ± 14% | 75.4 ± 9.4%
UCAUGUCACAUGUAAACCAAA | 34.7 ± 7.1% | 13.6 ± 4.6% | 27.6 ± 7.7% | 31.9 ± 1.7%
UAUGGAUACAUGUAAACCAAA | 48.8 ± 3.1% | 42.9 ± 15% | 85.2 ± 8.8% | 88.4 ± 14%
UUUGCAGACAUGUAAACCAAA | 102 ± 2.2% | 80.8 ± 8.8% | 102 ± 8% | 72.9 ± 6.6%
UAGAGACACAUGUAAACCAAA | 35.5 ± 7.8% | 19.5 ± 5.3% | 25.5 ± 6.8% | 38.1 ± 6.2%
UGAAAAGACAUGUAAACCAAA | 97.5 ± 16% | 71.7 ± 7.3% | 99.8 ± 9.3% | 73.2 ± 17%
UAGAAUAACAUGUAAACCAAA | 87.1 ± 11% | 76.3 ± 2.7% | 87.7 ± 8.7% | 66.6 ± 1%
UGCUCAAACAUGUAAACCAAA | 80.5 ± 8.5% | 80.9 ± 7.6% | 68.6 ± 6.8% | 70.2 ± 15%
UGUUGCAACAUGUAAACCAAA | 84.3 ± 8.9% | 31 ± 0.56% | 47 ± 3% | 82.6 ± 12%

Sequence | cell viability (3LL) | cell viability (M565) | cell viability (HeyA8) | cell viability (H460)
UCUGGGUACAUGUAAACCAAA | 35.6 ± 6.6% | 85.1 ± 17% | 52.1 ± 4.8% | 26.9 ± 3.5%
UUCUGGUACAUGUAAACCAAA | 39.3 ± 5.1% | 20.5 ± 0.41% | 21.1 ± 2% | 30.4 ± 4.2%
UUAACCAACAUGUAAACCAAA | 91.7 ± 4.3% | 84.6 ± 5.5% | 92.3 ± 9.2% | 85.8 ± 21%
UUAGUACACAUGUAAACCAAA | 12.3 ± 4.1% | 110 ± 14% | 54 ± 2.7% | 30.2 ± 1.2%
UCCCGAUACAUGUAAACCAAA | 106 ± 22% | 69.2 ± 7.1% | 69.8 ± 9.3% | 83.1 ± 12%
UACUCACACAUGUAAACCAAA | 85.7 ± 12% | 32.3 ± 2.8% | 66 ± 3.3% | 82.3 ± 13%
UUACCUUACAUGUAAACCAAA | 59.2 ± 11% | 58.1 ± 12% | 61.2 ± 3.6% | 65.6 ± 5.4%
UCUAACAACAUGUAAACCAAA | 95.3 ± 15% | 78.7 ± 17% | 84.9 ± 7% | 65.2 ± 9.9%
UCUAGGGACAUGUAAACCAAA | 96.7 ± 18% | 65.1 ± 17% | 89.6 ± 9.8% | 48.3 ± 2.3%
UAUUAUUACAUGUAAACCAAA | 102 ± 25% | 95.3 ± 14% | 94.9 ± 9.6% | 100 ± 11%
UAGAGGGACAUGUAAACCAAA | 54.9 ± 8.2% | 21.02 ± 0.05% | 46.4 ± 2.9% | 54.4 ± 1.6%
UACACUCACAUGUAAACCAAA | 40.2 ± 5.2% | 37.2 ± 0.73% | 64.1 ± 5.6% | 66.3 ± 4.4%
UGCACAAACAUGUAAACCAAA | 65.9 ± 12% | 57.9 ± 2.3% | 77.4 ± 3% | 70 ± 9.1%
UAACAGUACAUGUAAACCAAA | 68.7 ± 7.2% | 57.1 ± 3% | 40.7 ± 12% | 63.7 ± 4.7%
UUUAAGCACAUGUAAACCAAA | 73.2 ± 4.8% | 75.6 ± 15% | 100 ± 11% | 62.9 ± 3.7%
UAGAGAGACAUGUAAACCAAA | 67.2 ± 8.8% | 40.9 ± 8.3% | 83.3 ± 7.2% | 77.2 ± 12%
UUGCCUAACAUGUAAACCAAA | 88.7 ± 9.8% | 59.7 ± 9.8% | 97.2 ± 9.7% | 84.4 ± 2.1%
UAUGAAGACAUGUAAACCAAA | 98.1 ± 4.7% | 81.4 ± 22% | 103 ± 6.7% | 70.7 ± 5%
UCGGGCUACAUGUAAACCAAA | 24.1 ± 1.1% | 10 ± 1.8% | 6.17 ± 0.37% | 32.3 ± 0.35%
UUUCAGCACAUGUAAACCAAA | 50 ± 7.1% | 94.7 ± 13% | 69.8 ± 6.9% | 30.2 ± 4.5%
UGUUGCCACAUGUAAACCAAA | 6.71 ± 4.2% | 16.7 ± 6.5% | 3.64 ± 0.33% | 18.9 ± 2.4%
UCCCAGUACAUGUAAACCAAA | 78 ± 18% | 25 ± 9.5% | 65.1 ± 6% | 65.5 ± 0.81%
